# In all, about 75,000 compounds went through this assay and about 15 (0.02%) were called active. Inconclusive means that the source gave no clear call. Such entries were picked first, then a sample of the others. Calls follow the shape of the dose curve; as a rule, active = well fitted inhibition curve with a large enough effect in the main read-out, with a control signal flat (not every such curve was filed as active); inconclusive = small, poorly fitted or top-dose-only effect, or a change in a side signal; inactive = flat fitted curve, though single readings scatter. Where the call is inconclusive, the potency comes from a doubtful curve fit. “Side channel” marks fits to a control or component signal instead of the main read-out.
# Biological target: Caspase-7 (Homo sapiens) (UniProt P55210)
# Test: qHTS Assay for Allosteric/Competitive Inhibitors of Caspase-7; as to activity change, negative = inhibition: % of control where 0% means no effect
# Conditions: recombinant caspase-7, Ac-DEVD-AFC fluorescence rate; activity change, negative = inhibition: at 57.5 µM (top of the series) unless noted
# Potency is read from the fitted curve at half-maximal effect; tags tell the direction and shape of the fitted curve or compound fluorescence and quenching.
# Sequence of UniProt P55210 (P55210 whole entry, looked up): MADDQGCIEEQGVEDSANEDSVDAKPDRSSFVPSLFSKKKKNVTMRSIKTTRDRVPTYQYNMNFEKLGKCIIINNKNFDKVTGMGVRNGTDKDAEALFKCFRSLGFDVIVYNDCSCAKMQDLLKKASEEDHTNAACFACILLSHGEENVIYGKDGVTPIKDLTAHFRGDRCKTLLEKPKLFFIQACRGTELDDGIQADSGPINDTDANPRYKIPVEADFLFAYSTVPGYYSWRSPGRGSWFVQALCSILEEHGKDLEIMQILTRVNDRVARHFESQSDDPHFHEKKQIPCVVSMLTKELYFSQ
SMILES,Potency,"activity change, negative = inhibition"
O=C(COc1ccccc1)Nc1cccc2nsnc12,"inconclusive: 31.6 µM [fluorescent, single point]",
COC(=O)C1(Cc2ccccc2)C2c3cc(C(=O)N4CCCC4)n(Cc4ccc(OC(F)(F)F)cc4)c3CC2CN1C(=O)c1ccccc1 (configuration not stated),inactive,
COCCn1c(=O)c(-c2ccc(Cl)cc2)nc2cnc(Nc3ccccc3)nc21,"inconclusive: 3.98 µM [fluorescent, side channel, full curve]",
CCOC(=O)c1ccc(CC(=O)c2oc3cc(O)ccc3c2C)o1,"inconclusive: 25.1 µM [inhibitor, single point]",
COc1ccc(-c2cc(C(F)(F)F)n3nc(C(=O)N4CCOCC4)c(Cl)c3n2)cc1,"inconclusive: 25.1 µM [inhibitor, single point]",
CC(=O)NCCNc1ccnc(-c2ccccc2C(F)(F)F)n1,inactive,
CC1CCN(C(=O)c2cc(-c3ccccc3O)on2)CC1,inactive,
CCO/C=C1\C(=O)N(c2ccccc2)C(=O)c2ccccc21,"inconclusive: 12.6 µM [fluorescent, partial curve]",
Cc1cc(C)c2c(n1)nn1c(NCCCN(C)C)cc(C)nc21,"inconclusive: 15.8 µM [fluorescent, side channel, partial curve]",
CCC(=O)N[C@@H]1Cc2ccccc2[C@@H](c2ccccc2)C1,inactive,
Cc1noc(C)c1-c1cc(Nc2ccccc2)ncn1,inactive,
O=C(COc1ccccc1Cl)NCc1ccncc1,inactive,
Cn1cc(-c2nc3cnc(Oc4ccccc4)nc3n(C3CC3)c2=O)c2ccccc21,"inconclusive: 2.51 µM [inhibitor, full curve]",
COc1ccc(C2C(C(C)=O)=C(C)N=c3s/c(=C\c4ccc5c(c4)OCO5)c(=O)n32)c(OC)c1 (configuration not stated),"inconclusive: 25.1 µM [inhibitor, single point]",
COc1cccc(Nc2ncc3ncc(=O)n(Cc4ccc(F)cc4)c3n2)c1,"inconclusive: 31.6 µM [inhibitor, single point]",
CCNc1ncc2ncc(=O)n(CCc3ccccc3)c2n1,"inconclusive: 25.1 µM [inhibitor, single point]",
CCOc1cc(C(=O)N(C)Cc2cc3ccccc3[nH]c2=O)cc(OCC)c1OCC,inactive,
O=C(COc1ccc2c(c1)C(=O)CC1(CCCCC1)O2)NCc1ccccn1,"inconclusive: 25.1 µM [inhibitor, single point]",
O=C(NCc1ccco1)C1CCN(c2ccc(N3CCOCC3)nn2)CC1,"inconclusive: 25.1 µM [fluorescent, partial curve]",
CN(C)c1ncc2nc(-c3cc(F)cc(F)c3)c(=O)n(CCC#N)c2n1,"inconclusive: 2.51 µM [fluorescent, full curve]",
c1cncc(CNc2cc(-c3ccc4c(c3)OCO4)ncn2)c1,inactive,
O=C1CC2(CCCCC2)Oc2ccc(OCC(=O)N3CCOCC3)cc21,"inconclusive: 31.6 µM [fluorescent, side channel, single point]",
CCOc1ccc2nc3cc(N=Nc4ccc(N)nc4N)ccc3c(N)c2c1,"inconclusive: 3.98 µM [fluorescent, partial curve]",

SMILES,Potency,"activity change, negative = inhibition"
Cc1ccc(S(=O)(=O)Nc2ccc(Br)cc2/C=N/n2cnnc2)cc1,"inconclusive: 20 µM [fluorescent, partial curve]",
CCOC(=O)CSc1nc2ccccc2c(=O)n1CC1CCCO1 (configuration not stated),inactive,
Cn1c(=O)n(-c2cccc(Cl)c2)c(=O)n1C,inactive,
CC(C)CO/N=C1/C[C@@H](O)[C@@H](O)[C@@H]2[C@@H]3C(=O)N(Cc4ccc5c(c4)OCO5)C(=O)[C@H]3CC[C@H]12,,inactive: 0.913% [at 11.5 µM]
CCc1cc(=O)oc2c(C)c(O)c(CN3CCCCC3)cc12,"inconclusive: 10 µM [fluorescent, side channel, partial curve]",
C=CCn1c(SCC(=O)N2CCN(C(=O)c3ccco3)CC2)nc2sc(CC)cc2c1=O,"inconclusive: 25.1 µM [inhibitor, single point]",
COc1ccc2c(c1OC)C(=O)N1C(C(=O)O)Cc3c([nH]c4ccccc34)C21 (configuration not stated),"inconclusive: 25.1 µM [fluorescent, partial curve]",
C=CCn1c(NC(=O)c2ccco2)c(S(=O)(=O)c2ccccc2)c2nc3ccccc3nc21,"inconclusive: 25.1 µM [fluorescent, partial curve]",
CC1=C(C(=O)OCC2CCCO2)C(c2ccncc2)C2=C(CC(C)(C)CC2=O)N1 (configuration not stated),"inconclusive: 15.8 µM [fluorescent, side channel, partial curve]",
Nc1c(C(=O)NC2CCCC2)sc2nc(-c3cccs3)ccc12,"inconclusive: 20 µM [fluorescent, side channel, partial curve]",
CCn1c(=O)c(C(=O)NCc2ccccn2)c(O)c2ccccc21,inactive,
COc1ccc(S(=O)(=O)c2c(N)n(Cc3ccco3)c3nc4ccccc4nc23)cc1,"inconclusive: 25.1 µM [fluorescent, partial curve]",
CCCOC(=O)C1=C(C)NC2=C(C(=O)C(C(=O)OC)C(C)C2)C1c1ccc(N(CC)CC)cc1 (configuration not stated),"inconclusive: 15.8 µM [fluorescent, side channel, single point]",
N#Cc1cccc(-c2nc3cnc(Oc4cccc(Cl)c4)nc3n(C3CC3)c2=O)c1,"inconclusive: 25.1 µM [inhibitor, single point]",
COc1ncc2nc(-c3cc(F)cc(F)c3)c(=O)n(Cc3cccs3)c2n1,"inconclusive: 25.1 µM [fluorescent, side channel, single point]",
COc1ccc(CCNc2oc(COc3ccccc3Cl)nc2C#N)cc1OC,"inconclusive: 31.6 µM [inhibitor, single point]",
O=c1c(-c2cccs2)nc2cnc(N3CCNCC3)nc2n1CCc1ccccc1,"inconclusive: 2.51 µM [fluorescent, side channel, full curve]",
COc1cccc(C2CC(c3ccccc3C)n3nc(N)nc3N2)c1 (configuration not stated),inactive,
COc1ccc(-c2nc3cnc(N4CCOCC4)nc3n(C3CC3)c2=O)cc1,"inconclusive: 2.51 µM [fluorescent, side channel, full curve]",
Cc1noc(C)c1CSc1nc2[nH]ncc2c(=O)n1-c1ccccc1,inactive,
COc1cc2ncnc(Nc3cccc(Cl)c3)c2cc1OC,inactive,
Cc1nc2ccc(Br)cn2c(=O)c1Cl,inactive,
CCn1c(O)c(C=Nc2ccccc2)oc1=S,"inconclusive: 39.8 µM [fluorescent, side channel, single point]",

SMILES,Potency,"activity change, negative = inhibition"
CN1CCN(c2ncc3nc(-c4cccc(C#N)c4)c(=O)n(C[C@H]4CCCO4)c3n2)CC1,"inconclusive: 6.31 µM [fluorescent, side channel, partial curve]",
Clc1c(CSc2nc3ccccc3o2)nc2sccn12,inactive,
COCCn1c(=O)c(-c2ccccc2)nc2cnc(N(C)C)nc21,"inconclusive: 7.94 µM [fluorescent, side channel, partial curve]",
COc1ccc(-n2c(=O)c(-c3cc(F)cc(F)c3)nc3cnc(N4CCNCC4)nc32)cc1,"inconclusive: 15.8 µM [inhibitor, partial curve]",
COCCn1nnnc1CN(CCc1ccc(OC)c(OC)c1)Cc1cc2ccc(C)cc2[nH]c1=O,"inconclusive: 25.1 µM [inhibitor, single point]",
CN1CCc2c(sc3c2C(=O)NC(c2ccccn2)N3)C1 (configuration not stated),"inconclusive: 12.6 µM [fluorescent, side channel, partial curve]",
Cc1cc(C)cc(N(CC(=O)Nc2c(C)n(C)n(-c3ccccc3)c2=O)S(C)(=O)=O)c1,inactive,
CCN1CC=C2C(C1)C(c1ccc(Cl)s1)C(C#N)=C(N)C2(C#N)C#N (configuration not stated),"inconclusive: 6.31 µM [fluorescent, side channel, partial curve]",
CCN1CCN(c2cc(C)c3cc(NC(=O)c4cnccn4)ccc3n2)CC1,inactive,
CS(=O)(=O)c1ccc([C@H](O)[C@H](CF)NC(=O)C(Cl)Cl)cc1,inactive,
Oc1c(/C=N/c2ncn[nH]2)ccc2ccccc12,"inconclusive: 25.1 µM [inhibitor, partial curve]",
O=C(Nc1ccc2nc(-c3cccs3)c(-c3cccs3)nc2c1)N1CCOCC1,"inconclusive: 15.8 µM [fluorescent, partial curve]",
Fc1ccc(Br)cc1C1C=C(c2ccc(Br)s2)Nc2ncnn21 (configuration not stated),"inconclusive: 31.6 µM [fluorescent, single point]",
OC12CCCCC1C(c1ccc3c(c1)OCO3)N(Cc1cccc(F)c1)CC2 (configuration not stated),inactive,
NCCC(=O)N[C@H](Cc1cnc[nH]1)C(=O)O,inactive,
CC(=O)c1c(C)nc2nonc2c1N,"inconclusive: 15.8 µM [fluorescent, partial curve]",
Oc1ccc(-c2nc(-c3ccc(F)cc3)c(-c3ccncc3)[nH]2)cc1,inactive,
CCOC(=O)N1CCN(Cc2nc3c(c(=O)n(C)c(=O)n3C)n2Cc2ccc(F)cc2)CC1,"inconclusive: 25.1 µM [fluorescent, side channel, single point]",
CC(C)OC(=O)CC(=O)c1sc2nc3c(cc2c1N)CN(C)CC3,"inconclusive: 15.8 µM [fluorescent, side channel, partial curve]",
Cc1nc(NCc2ccccc2)c2nc(-c3ccccc3)n(CC3CCN(C)CC3)c2n1,inactive,
COc1cccc(Cn2c(=O)c(C)nc3cnc(Nc4cccc(OC)c4)nc32)c1,"inconclusive: 31.6 µM [inhibitor, single point]",
